Measurements as given in US7973069B2 (PTC Therapeutics, Inc., priority 2004, dated 2011).
Like-named read-outs stand apart in the source and are kept apart here.

Assays:
HCV replicon = experiment: microbe, parasite or virus in culture; format: cell-based; details: Hepatitis C virus
[1] = test system: HCV IRES-driven translation
Experimental: (§1) Both HepGmono-4 and pLuc cells are treated with the compounds as described above, following treatment with the test compounds for 20 hours, cells are collected and lysed in Laemmli buffer containing 0.5% SDS. Proteins are separated on a 10% SDS-PAGE, then transferred onto a nitrocellulose membrane, and blotted using antibodies against Fluc (RDI) and β-actin (Oncogene).

[2] = test system: cap-dependent translation (pLuc); experiment: Western blot of Fluc protein in pLuc cells (cap-dependent translation); details: 20 hours treatment; data not shown
Experimental: as §1

[3] = 48 h, read-out: Replicon IC50 μM 2-day

Compound	IC50 (HCV replicon; [3]) [µM]	further results
CCCS(=O)(=O)Nc1ccc(-c2c(C#N)c3ccc(OC(F)F)cc3n2CC)cc1 [Compound 928, Propane-1-sulfonic acid [4-(3-cyano-6-difluoromethoxy-1-ethyl-1H-indoel-2-yl)-phenyl]-amide]	< 0.5	IC50 (HCV replicon; 72 h, read-out: Replicon IC50 μM 3-day): < 0.5 µM
C[C@@H](OC(=O)Nc1ccc(-c2c(C#N)c3ccc(Oc4ncccn4)cc3n2C2CCC2)cc1)C1CC1 [Compound 2210, (R)-{4-[3-cyano-1-cyclobutyl-6-(pyrimidin-2-yloxy)-1H-indol-2-yl]-phenyl}carbamic acid 1-cyclopropyl-ethyl ester]	< 0.5	–
C[C@@H](OC(=O)Nc1ccc(-c2c(C#N)c3ccc(Oc4ncccn4)cc3n2C2CC2)cc1)C1CC1 [Compound 2217, (R)-{4-[3-cyano-1-cyclopropyl-6-(pyrimidin-2-yloxy)-1H-indol-2-yl]-phenyl}-carbamic acid 1-cyclopropylethyl ester]	< 0.5	–
CC(C)NS(=O)(=O)Nc1ccc(-c2c(C#N)c3ccc(Oc4ncccn4)cc3n2C2CCC2)cc1 [Compound 2263]	< 0.5	–
CC(C)OC(=O)Nc1ccc(-c2c(C#N)c3ccc(Oc4ncccn4)cc3n2C2CCC2)cc1Cl [Compound 2339, {2-chloro-4-[3-cyano-1-cyclobutyl-6-(pyrimidin-2-yloxy)-1H-indol-2-yl]-phenyl}-carbamic acid isopropyl ester]	< 0.5	–
C[C@@H](OC(=O)Nc1ccc(-c2c(C#N)c3ccc(-c4ccccn4)cc3n2C2CCC2)cc1)C1CC1 [Compound 2417, [4-(3-cyano-1-cyclobutyl-6-pyridin-2-yl-1H-indol-2-yl)-phenyl]-carbamic acid 1-cyclopropyl-ethyl ester]	< 0.5	–
C[C@@H](OC(=O)Nc1ccc(-c2c(C#N)c3ccc(-c4ncccn4)cc3n2C2CCC2)cc1)C1CC1 [Compound 2419, [4-(3-cyano-1-cyclobutyl-6-pyrimidin-2-yl-1H-indol-2-yl)-phenyl]-carbamic acid 1-cyclopropyl-ethyl ester]	< 0.5	–
CC(C)Nc1ccc(-c2c(C#N)c3ccc(Oc4ncccn4)cc3n2C2CC2)cc1 [Compound 2434, 1-cyclopropyl-2-(4-isopropylamino-phenyl)-6-(pyrimidin-2-yloxy)-1H-indole-3-carbonitrile]	< 0.5	–
COc1ccc(C[C@H](N)C(=O)N[C@H]2[C@@H](O)[C@H](n3cnc4c(N(C)C)ncnc43)O[C@@H]2CO)cc1 [puromycin]	–	luciferase reporter protein levels in HepGmono-4 cells (Western blot) [1]: inhibited; luciferase reporter protein in pLuc cells, cap-dependent (Western blot) [2]: inhibited
